According to PubChem BioAssay AID488896 (Broad Institute, 2010):
The whole screen tested about 320,000 compounds, of which about 3,100 (0.97%) were called active. This list was built around the results that the source calls inconclusive (neither active nor inactive); the mix of calls is not that of the screen.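 Rule for the calls: active = mean replicate inhibition of at least 70% and a set share of replicates each scoring 70 or more; inconclusive = meets just one of the two criteria; inactive = fails both criteria.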

Each compound was assayed against Scavenger receptor class B member 1 (Mus musculus) (UniProt Q61009) (assay: inhibitors of SR-BI mediated HDL lipid uptake, primary screen, ldlA[mSR-BI] cells, fluorescence, single point (AID 488896;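 note: 0% = median of neutral control wells and 100% = median of positive control wells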)). Settings: ldlA[mSR-BI] CHO cells, DiI-HDL uptake fluorescence, 3 h; at 12.5 µM; hits give high values.
Sequence of UniProt Q61009 (Q61009 whole entry, looked up): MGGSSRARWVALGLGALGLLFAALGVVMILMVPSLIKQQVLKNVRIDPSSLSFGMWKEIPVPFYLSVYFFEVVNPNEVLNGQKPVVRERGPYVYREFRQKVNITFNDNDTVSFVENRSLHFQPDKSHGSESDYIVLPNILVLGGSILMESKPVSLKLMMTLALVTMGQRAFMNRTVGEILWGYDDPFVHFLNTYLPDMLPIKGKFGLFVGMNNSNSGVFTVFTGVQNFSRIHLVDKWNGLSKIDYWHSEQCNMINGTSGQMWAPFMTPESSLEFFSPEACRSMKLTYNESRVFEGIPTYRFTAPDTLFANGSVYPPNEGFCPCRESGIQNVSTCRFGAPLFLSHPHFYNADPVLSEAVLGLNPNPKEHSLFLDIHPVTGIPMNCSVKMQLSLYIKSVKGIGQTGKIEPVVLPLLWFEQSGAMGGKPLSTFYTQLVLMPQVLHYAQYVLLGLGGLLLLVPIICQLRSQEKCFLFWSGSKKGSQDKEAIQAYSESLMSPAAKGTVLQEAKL
`O=S(=O)(c1ccccc1)c1cnc(-c2ccccc2)nc1N1CCCCC1` was tested, and the inhibition was inconclusive: 70.2%.
In the case of `CON/C=C(\C=Nc1ccc(Cl)cc1)c1ncc(C(F)(F)F)cc1Cl`, the inhibition was active: 73%.
With `Oc1oc(-c2ccccc2)nc1C=Nc1ccccc1` the inhibition was inactive: 7.91%.
With `COc1ccc(CCNC(=O)c2nnn(-c3cccc(C)c3)c2N)cc1OC` the inhibition was inconclusive: 71.7%.
In the case of `O=C(NNc1c2ccccc2nc2ccccc12)c1ccccc1O`, the inhibition was inconclusive: 72.4%.
For `COc1ccccc1NC(=O)Nc1nc(CC(=O)N2CCN(c3ccccc3OC)CC2)cs1`, the inhibition was inconclusive: 70.1%.
For `Cc1ccc(C(=O)c2oc3ccccc3c2NC(=O)c2cc(-c3cc(C)ccc3O)n[nH]2)cc1`, the inhibition was inconclusive: 77.1%.
With `COc1cc(NC(=O)COc2ccccc2[N+](=O)[O-])ccc1NC(=O)c1cccs1` the inhibition was inconclusive: 74.6%.
With `CSc1nsc(/C=C/Nc2ccc(O)cc2C)c1C#N` the inhibition was active: 80.6%.
In the case of `Cc1cc(C)c(C)c(S(=O)(=O)N2CCC(C(=O)NCc3ccco3)CC2)c1C`, the inhibition was inconclusive: 70%.
In the case of `CC(Oc1ccc(Br)cc1)C(=O)Nc1ccc(S(=O)(=O)NC2=NCCCCC2)cc1` (centres undefined), the inhibition was inconclusive: 71.4%.
With `COc1ccc(NS(=O)(=O)c2ccc3nc(COc4ccc5ccccc5c4)[nH]c3c2)cc1` the inhibition was inconclusive: 70.9%.
With `CCC(c1nnnn1CCc1ccccc1)N(Cc1ccco1)Cc1cc2cc(C)cc(C)c2[nH]c1=O` (centres undefined) the inhibition was inactive: 10.6%.
`CCCCn1c(N)c(N(Cc2ccccc2OC)C(=O)c2ccc(N3CCCC3=O)cc2)c(=O)[nH]c1=O` was tested, and the inhibition was inactive: -0.11%.
`CN(C)c1ccc(/C=C2\Oc3ccc(C#Cc4cccc(N)c4)cc3C2=O)cc1` was tested, and the inhibition was inconclusive: 70.3%.
With `O=C(Nc1ccc(-c2nc3ccccc3o2)cc1)c1cc(-n2cnnc2)ccc1Cl` the inhibition was inconclusive: 73.4%.
`COc1ccc(NC(=O)c2cc(-c3ccccn3)nc3ccccc23)cc1S(=O)(=O)N(C)C` was tested, and the inhibition was inconclusive: 70.2%.
`Nc1c(-c2ccc(Cl)cc2)cnn1-c1cc(C(F)(F)F)cc(C(F)(F)F)c1` was tested, and the inhibition was inconclusive: 77.9%.
For `CCN=C1SC(CC(=O)Nc2sc3c(c2C#N)CCCC3)C(=O)N1CC` (centres undefined), the inhibition was inconclusive: 73.7%.
With `CC(=O)Nc1ccc(S(=O)(=O)Nc2cc(C)c(-n3nc4ccccc4n3)cc2O)cc1` the inhibition was active: 92.9%.
With `COc1cc2c(cc1NC(=O)c1cccc(F)c1)CCCC2` the inhibition was active: 75.9%.
With `C/C(=N\NC(=O)c1cc(C2CC2)nc2ccccc12)c1ccc(O)cc1O` the inhibition was inconclusive: 70.7%.
With `CN(C)c1ccc(NC(=O)c2ccc3nsnc3c2)cc1` the inhibition was inconclusive: 70.7%.
In the case of `O=C(c1ccccc1)c1ccc(N2CCN(C(=O)c3cccc(F)c3F)CC2)c(F)c1`, the inhibition was inconclusive: 70.9%.
For `CN(/N=C\c1ccc(O)c(O)c1)c1nc(-c2ccccc2)cc(-c2ccccc2)n1`, the inhibition was active: 112%.
With `CCN(CC)c1ccc(/C=N/N2CCN(c3ccccc3OC)CC2)cc1` the inhibition was active: 81%.
In the case of `CCSc1nc(-c2ccc(OC)cc2)cc(-c2ccc(OC)cc2)c1C#N`, the inhibition was inconclusive: 72.1%.
With `Cc1nc(NC(=O)/C=C/c2ccco2)sc1C` the inhibition was inactive: 7.63%.
For `COc1cc(O)cc2c1[C@@H]1Oc3c(ccc(O)c3CC=C(C)C)[C@@H]1CO2`, the inhibition was active: 85.1%.
With `CC(=O)Nc1ccccc1OCC(=O)N(Cc1ccccc1)C(C)C` the inhibition was inactive: 7.25%.
With `CC1C(=O)N2CCCc3cc(NC(=O)C(=O)NCCc4ccccc4)cc1c32` (centres undefined) the inhibition was inconclusive: 71%.
For `COc1ccc(/C=C2\Sc3ccc(C(=O)N4CCN(Cc5ccccc5)CC4)cc3N(C)C2=O)cc1OC`, the inhibition was inconclusive: 72.6%.
In the case of `Cc1c(NC(=O)/C(C#N)=C/c2ccc(-c3ccccc3Cl)o2)c(=O)n(-c2ccccc2)n1C`, the inhibition was inconclusive: 70.8%.
With `CC1(C)CC(=O)C2=C(C1)N1C(=C(C#N)C2c2ccc(Cl)cc2)N=C(N)c2ccccc21` (centres undefined) the inhibition was inactive: -31.6%.
For `O=C(O)c1ccc(N2CCN(Cc3ccc4c(c3)OCO4)CC2)c([N+](=O)[O-])c1`, the inhibition was inactive: 12.5%.
`COc1ccccc1CN1C(=O)[C@@H]2Cc3c([nH]c4ccccc34)C(C)(C)N2C1=O` was tested, and the inhibition was active: 76.2%.
With `CCOC(=O)Cn1nnc(-c2cc(OC)c(OC)c(OC)c2)n1` the inhibition was inactive: -1.16%.
In the case of `O=C(CSC1=NCCN1)Nc1ccccc1[N+](=O)[O-]`, the inhibition was inconclusive: 72.4%.
In the case of `COc1ccccc1C(=O)NCC(=O)OC(C)C(=O)NC(=O)NC1CCCCC1` (centres undefined), the inhibition was inactive: -9.51%.
For `O=C(NCCn1cc(SCc2ccccc2)c2ccccc21)c1c(F)cccc1F`, the inhibition was inconclusive: 70.6%.
With `Cc1ccc(-c2cc(C(=O)NCc3ccccn3)c3ccccc3n2)cc1` the inhibition was inactive: 33.9%.
`CN(C)c1ccc(C(=S)N2CCN(C(=S)Nc3ccc(Cl)cc3)CC2)cc1` was tested, and the inhibition was active: 95%.
In the case of `Cc1ccc(NC(=O)c2ccc3c(c2)CCN3S(C)(=O)=O)cc1C`, the inhibition was inconclusive: 70.4%.
For `Cc1ccc(-c2c(C(=O)N/N=C/c3sccc3C)nnn2-c2nonc2N)cc1`, the inhibition was active: 84.6%.
`COc1cc(C)ccc1NC(=O)Cc1csc(NC(=O)Nc2ccccc2OC)n1` was tested, and the inhibition was inconclusive: 71.8%.
For `COc1ccc(NS(=O)(=O)c2cc(NC(=O)c3cc(=O)c4ccccc4o3)ccc2OC)cc1`, the inhibition was inactive: 52.4%.
`COc1cc(NS(C)(=O)=O)ccc1Nc1c2ccccc2nc2ccccc12` was tested, and the inhibition was inconclusive: 71.8%.
`CC1Cc2ccccc2N1C(=O)Cn1nnc(-c2ccccc2NC(=O)C2CCC2)n1` (centres undefined) was tested, and the inhibition was active: 78.6%.
With `CCOc1ccc(NC(=O)c2cc(C3CC3)nc3c2cnn3C(C)C)cc1OC` the inhibition was inconclusive: 70.8%.
In the case of `Cc1cc(C)n2nc(-c3sccc3-n3c(C)ccc3C)cc2n1`, the inhibition was inactive: -17.3%.
`COc1ccc(Oc2nc(-c3ccccn3)ncc2OC)cc1` was tested, and the inhibition was inactive: 0.085%.
For `O=C(Cc1ccc(NC(=O)C2CCCN(C(=O)CCc3ccccc3)C2)cc1)Nc1cccc(C(=O)N2CCCCC2)c1` (centres undefined), the inhibition was inconclusive: 71.2%.
`Cc1sc(NC(=O)CN2CCOCC2)nc1-c1ccc2c(c1)CCN2S(=O)(=O)c1ccccc1` was tested, and the inhibition was inconclusive: 70.1%.
In the case of `Cc1ccc(-c2cc(C(=O)N/N=C/c3ccoc3)c3ccccc3n2)cc1`, the inhibition was inconclusive: 72%.
